According to PubChem BioAssay AID686979 (National Center for Advancing Translational Sciences (NCATS), 2013):
In all, about 420,000 compounds went through this assay and about 50,000 (12%) were called active. The inconclusive results got no clear call from the source; some entries with a clear call stand among them for comparison. The call rests on the fitted dose curve; in most records, active means well fitted inhibition curve with a large enough effect; inconclusive means small, poorly fitted or top-dose-only effect; inactive means flat fitted curve, though single readings scatter. No potency is given beside an inconclusive call; the fits are too rough.

experiment: qHTS for Inhibitors of human tyrosyl-DNA phosphodiesterase 1 (TDP1): qHTS in cells in presence of CPT; conditions: chicken DT40 Tdp1-/-;hTDP1 cells + 20 nM CPT, ATP luminescence, 48 h; activity change, negative = growth inhibition: at 46.2 µM (top of the series); further: nearly all actives have a fitted effect of over 55% in size
In short: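 Chicken DT40 Tdp1-/- cells complemented with human TDP1, 400 cells/well, exposed to compounds plus 20 nM camptothecin for at least 48 h at 37 C; viability read as ATP content by CellTiter-Glo luminescence.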
On the % scale 0 is the no-effect control and ±100 the full control effect; potency means the concentration at half of the fitted maximal effect; tags describe the fitted curve by direction and shape.

Q: For `Cn1cccc1-c1nc2ccc(NC(=O)c3ccco3)cc2[nH]1`, which Potency is on record?
A: inconclusive [inhibitor, single point]

Q: Which Potency does the source give for `CCOC(=O)c1cccc(NC(=O)C2CCCN(c3nnc(C)c4c(C)n(-c5ccccc5)nc34)C2)c1` (stereo unspecified) here?
A: active: 13 µM

Q: For `COc1ccc(/C(C)=N/OC/C(O)=C(\C#N)c2nc3ccccc3[nH]2)cc1OC`, which activity change, negative = growth inhibition is on record?
A: inconclusive: -31.3% [inhibitor]

Q: Which “activity change, negative = growth inhibition” value does the source give for `O=S(=O)(NCCc1nnc2ccc(SCc3cccnc3)nn12)c1ccccc1` here?
A: inactive: -11.9%

Q: With `Cc1ccc(CNS(=O)(=O)c2ccc(C(F)(F)F)cc2)n1C` as the molecule, how does the “activity change, negative = growth inhibition” value read?
A: inactive: -0.862%

Q: Which “activity change, negative = growth inhibition” value does the source give for `COc1ccc2c(C)cc(SCC(=O)Nc3nsc(-c4ccc(C)cc4)n3)nc2c1` here?
A: inactive: -9.47%

Q: With `O=C(Nc1ccccc1)C1CCCN1S(=O)(=O)c1ccc(Br)cc1` (stereo unspecified) as the molecule, how does the Potency read?
A: inconclusive [inhibitor, single point]

Q: With `Cn1c(=O)c2c(nc(CN3CCc4ccccc4C3)n2Cc2ccccc2F)n(C)c1=O` as the molecule, how does the Potency read?
A: active: 8.2 µM

Q: With `CCOc1ccc(C(=O)N2CCN(c3ncccn3)CC2)cc1` as the molecule, how does the “activity change, negative = growth inhibition” value read?
A: inactive: 5.8%

Q: For `CN(Cc1cn(Cc2ccc(F)cc2)nn1)C1CN(Cc2cn(Cc3ccc(F)cc3)nn2)S(=O)(=O)C1` (stereo unspecified), which “activity change, negative = growth inhibition” value is on record?
A: inactive: -26.3%

Q: With `COc1cc2c(cc1OC)CN(CC(=O)Nc1ccccc1C(=O)NCc1ccccc1)CC2` as the molecule, how does the Potency read?
A: active: 29.1 µM

Q: Which Potency does the source give for `CCOC(=O)c1c(Nc2ccc(Cl)cc2)sc(/C=C2\C=Nc3ccccc32)c1O` here?
A: inconclusive [inhibitor, single point]

Q: Which Potency does the source give for `COc1ccc(S(=O)(=O)N(C)C[C@H]2Oc3c(NC(=O)C4CCCCC4)cccc3C(=O)N([C@H](C)CO)C[C@@H]2C)cc1` here?
A: inconclusive [inhibitor, single point]

Q: Which Potency does the source give for `COc1ccc(S(=O)(=O)Nc2cccc3c2O[C@H](CN(C)Cc2ccncc2)[C@@H](C)CN([C@H](C)CO)C3=O)cc1` here?
A: inconclusive [inhibitor, single point]

Q: For `COc1ccc(OC)c(C2C(C(=O)Nc3ccccc3OC)=C(C)Nc3c(C(=O)Nc4ccc(F)cc4)cnn32)c1` (stereo unspecified), which Potency is on record?
A: inconclusive [inhibitor, single point]

Q: With `CC(Nc1ccc(Br)cn1)c1cc(Cl)ccc1O` (stereo unspecified) as the molecule, how does the Potency read?
A: inconclusive [inhibitor, single point]

Q: With `CCOc1ccc(CN(C)c2nc(-c3cccnc3)nc3ccccc23)cc1OC` as the molecule, how does the Potency read?
A: active: 13 µM

Q: For `COC(=O)c1cc(C(=O)OC)cc(-n2c(C)cc(C(=O)CC#N)c2C)c1`, which Potency is on record?
A: inconclusive [inhibitor, single point]

Q: With `O=C(O)c1ccc(Nc2nc3ccccc3nc2NS(=O)(=O)c2ccc(F)cc2)cc1` as the molecule, how does the Potency read?
A: inconclusive [inhibitor, single point]

Q: With `O=C(c1ccccc1)[C@@H]1[C@@H]2C(=O)N(c3ccc(F)cc3)C(=O)[C@@H]2C2CCCN21` (stereo partly specified) as the molecule, how does the Potency read?
A: inconclusive [inhibitor, single point]

Q: For `O=C(Nc1ccc(S(=O)(=O)N2CCOCC2)cc1)c1ccccc1Br`, which “activity change, negative = growth inhibition” value is on record?
A: inactive: -16.8%

Q: For `OCCC1CN(Cc2cnc(-c3ccccc3)s2)CCN1C1CCCC1` (stereo unspecified), which “activity change, negative = growth inhibition” value is on record?
A: inactive: 6.55%

Q: For `O=S(=O)(CCc1nnc(-c2ccc(Br)cc2)o1)c1ccc(Cl)cc1`, which “activity change, negative = growth inhibition” value is on record?
A: inactive: 1.28%

Q: With `Cn1c(=O)c(=O)n(C)c2cc(N3CCOCC3)c(NS(=O)(=O)c3ccc(F)c(Cl)c3)cc21` as the molecule, how does the Potency read?
A: inconclusive [inhibitor, single point]

Q: For `O=C(NC(=S)NN1CCCCC1c1cccnc1)c1ccc(Cl)cc1Cl` (stereo unspecified), which Potency is on record?
A: inconclusive [inhibitor, single point]

Q: For `CCOc1ccc(NC(=O)COC(=O)COc2cccc3c2OC(C)(C)C3)cc1`, which “activity change, negative = growth inhibition” value is on record?
A: inactive: 5.64%

Q: Which Potency does the source give for `O=S(=O)([O-])CCC[N+]1(CC#Cc2ccccc2)CCCCC1` here?
A: active: 16.4 µM

Q: For `Cc1ccc(Cn2c(C(CO)Nc3nc(-c4ccc(Cl)c([N+](=O)[O-])c4)cs3)nc3ccccc32)cc1` (stereo unspecified), which Potency is on record?
A: inconclusive [inhibitor, single point]

Q: For `O=C1CSC(c2ccc([N+](=O)[O-])cc2)N1C1CCCCC1` (stereo unspecified), which Potency is on record?
A: inconclusive [inhibitor, single point]

Q: For `CCCc1cc(C(=O)Nc2cc(Br)ccc2O)no1`, which Potency is on record?
A: inconclusive [inhibitor, partial curve, poor fit]

Q: For `Cc1ccc(Oc2ccc(NC(=O)Cn3ccsc3=N)cc2)cc1`, which Potency is on record?
A: inconclusive [inhibitor, single point]

Q: For `COc1ccc(S(=O)(=O)N2CCOC2CNC(=O)C(=O)NCCCc2ccccc2)cc1` (stereo unspecified), which Potency is on record?
A: inconclusive [inhibitor, single point]

Q: For `Cc1ccc2nc(NC(=O)CCn3c(=O)sc4ccccc43)sc2c1`, which Potency is on record?
A: active: 18.4 µM

Q: Which Potency does the source give for `Cc1[nH]c2ccccc2c1CCN(Cc1cccs1)C(=S)Nc1ccccc1` here?
A: inconclusive [inhibitor, single point]

Q: For `COc1ccc(NS(=O)(=O)c2ccc3oc(Nc4ccc5c(c4)OCCO5)nc3c2)cc1`, which Potency is on record?
A: inconclusive [inhibitor, single point]

Q: For `Cc1ccc(CNC(=O)C2CCC(CNc3nc(=S)[nH]c4ccccc34)CC2)cc1` (stereo unspecified), which Potency is on record?
A: inconclusive [inhibitor, partial curve, poor fit]

Q: Which Potency does the source give for `Cc1nn2c(NCc3ccccn3)cc(C(C)(C)C)nc2c1-c1ccccc1` here?
A: inconclusive [inhibitor, single point]

Q: With `Nc1ccccc1CNc1nc(NCCO)nc2c1ncn2CCN1CCOCC1` as the molecule, how does the “activity change, negative = growth inhibition” value read?
A: inactive: 12.3%

Q: With `COc1cc(OC)cc(C2=Cc3ccccc3C(CC(C)=O)N2c2ccc(C#CCCO)cc2)c1` (stereo unspecified) as the molecule, how does the Potency read?
A: active: 20.6 µM

Q: With `CCCCC(=O)Nc1ccc(NC(=O)c2ccc([N+](=O)[O-])cc2Cl)cc1OC` as the molecule, how does the Potency read?
A: inconclusive [inhibitor, single point]

Q: Which Potency does the source give for `CC(C)C[C@H]1CN([C@@H](CC(C)C)CN2CCC[C@@H]2CN2C(=S)NC[C@@H]2Cc2ccc(O)cc2)C(=S)N1CC1CCCCC1` here?
A: inconclusive [inhibitor, single point]

Q: For `CCNC(=S)N=Nc1c(O)[nH]c2ccc([N+](=O)[O-])cc12`, which Potency is on record?
A: active: 3.26 µM

Q: Which Potency does the source give for `CC1(C)Cc2c(c(-c3ccco3)nc3sc4c(NCCN5CCOCC5)ncnc4c23)CO1` here?
A: active: 8.2 µM

Q: With `CCC(=O)NC(Nc1c(C)n(C)n(-c2ccccc2)c1=O)C(Cl)(Cl)Cl` (stereo unspecified) as the molecule, how does the “activity change, negative = growth inhibition” value read?
A: inactive: -11.1%

Q: For `Clc1ccccc1-c1csc(Nc2cccnc2)n1`, which “activity change, negative = growth inhibition” value is on record?
A: inactive: 3.59%

Q: For `Cc1cccc(C(=O)N[C@H](C(=O)Nc2nccs2)C(C)C)c1`, which “activity change, negative = growth inhibition” value is on record?
A: inactive: -15.2%

Q: For `Cc1cccc2cc(CN(Cc3ccco3)C(=O)c3ccco3)c(=O)[nH]c12`, which “activity change, negative = growth inhibition” value is on record?
A: inactive: -2.79%

Q: Which Potency does the source give for `Cc1cc(C)c(C#N)c(SCCS(=O)(=O)c2ccc(C(C)(C)C)cc2)n1` here?
A: active: 13 µM

Q: For `O=C(c1ccccc1)c1ccc(Oc2ccc([N+](=O)[O-])cc2[N+](=O)[O-])cc1`, which Potency is on record?
A: inconclusive [inhibitor, single point]

Q: With `O=C(Nc1ccc(-c2nnc3n2CCCCC3)cc1)c1cc2ccccc2o1` as the molecule, how does the Potency read?
A: inconclusive [inhibitor, single point]

Q: For `CCc1noc(C)c1C(=O)Nc1cc(S(=O)(=O)N2CCCCC2)ccc1N(C)C`, which Potency is on record?
A: inconclusive [inhibitor, single point]

Q: With `CC(C)(C)OC(=O)N1CCC(c2c(C(=O)NCc3ccc4c(c3)OCO4)cnn2-c2ccccc2Cl)CC1` as the molecule, how does the Potency read?
A: inconclusive [inhibitor, single point]

Q: Which Potency does the source give for `Cc1nn(-c2ccccc2)c(C)c1-c1nnc(-c2c(C)nn(-c3ccccc3)c2C)o1` here?
A: inconclusive [inhibitor, single point]

Q: With `CC(C)(C)OC(=O)N1CCC(C(=O)NCC2CCCO2)CC1` (stereo unspecified) as the molecule, how does the “activity change, negative = growth inhibition” value read?
A: inactive: 4.53%

Q: For `Cn1c(=O)c2c(ncn2CC(=O)Nc2ccccc2)n(C)c1=O`, which “activity change, negative = growth inhibition” value is on record?
A: inactive: -22.8%

Q: Which Potency does the source give for `O=c1[nH]cc(-c2ccc(Br)cc2)n1Cc1ccccc1` here?
A: inconclusive [inhibitor, single point]

Q: For `CCCc1cc(C(=O)OC)c(NC(=O)c2cc(C)on2)s1`, which “activity change, negative = growth inhibition” value is on record?
A: inactive: -12.3%

Q: Which “activity change, negative = growth inhibition” value does the source give for `COc1ccccc1/C=N/NC(=O)CC(=O)NCc1ccccc1` here?
A: inactive: -0.884%

Q: Which Potency does the source give for `CC(C)Oc1ccc(/C=C(\NC(=O)/C=C/c2ccco2)C(=O)NCCc2nc3ccccc3[nH]2)cc1` here?
A: active: 18.4 µM

Q: Which Potency does the source give for `O=c1ccc(/C=C/c2ccccc2)nn1Cc1ccc(Cl)cc1Cl` here?
A: inconclusive [inhibitor, single point]

Q: With `CCCC(C)(C)C(=O)N1CCC1(C)C(=O)Nc1cccc2ccccc12` (stereo unspecified) as the molecule, how does the Potency read?
A: active: 20.6 µM

Q: Which “activity change, negative = growth inhibition” value does the source give for `CCOC(=O)Cn1c(C)nc2ccccc21` here?
A: inactive: -1.27%

Q: With `c1ccc(-c2nc3cc4ccccc4cc3[nH]2)nc1` as the molecule, how does the Potency read?
A: inconclusive [inhibitor, single point]

Q: For `O=C(/C=C/c1ccccc1)OCCCCN=C1NS(=O)(=O)c2ccccc21`, which Potency is on record?
A: active: 9.2 µM

Q: Which Potency does the source give for `Cc1nn(-c2ccccc2)c(N2CCCC2)c1/C=N/NC(=O)c1cc(-c2cccs2)nc2ccccc12` here?
A: inconclusive [inhibitor, partial curve]

Q: With `O=C(CN1C(=O)COc2ccccc21)NCc1ccc(C(=O)O)cc1` as the molecule, how does the “activity change, negative = growth inhibition” value read?
A: inactive: -0.79%

Q: For `COc1ccc2[nH]c(CN3CCN(C(C)C)C(CCO)C3)c(C)c2c1` (stereo unspecified), which “activity change, negative = growth inhibition” value is on record?
A: inactive: 16.4%

Q: Which Potency does the source give for `CCC(C)N(C(=O)COC(=O)CCc1c[nH]c2ccccc12)C1CCS(=O)(=O)C1` (stereo unspecified) here?
A: inconclusive [inhibitor, single point]

Q: With `CCCNC(=O)C1(C)CCCN(C(=O)c2cc(C(C)(C)C)nn2C)C1` (stereo unspecified) as the molecule, how does the “activity change, negative = growth inhibition” value read?
A: inactive: -17.1%

Q: With `Cc1ccc(N2C(=O)C(CN3CCOCC3)C2c2ccccc2)cc1` (stereo unspecified) as the molecule, how does the Potency read?
A: inconclusive [inhibitor, single point]

Q: For `COc1cccc(/C=N/Nc2cc(-n3nc(C)cc3-c3ccccc3)ncn2)c1O`, which Potency is on record?
A: active: 0.82 µM
